Assay results from PubChem BioAssay AID1508624 (National Center for Advancing Translational Sciences (NCATS), 2021).
The campaign covered roughly 48,000 compounds. About 120 (0.25%) were called active. Roughly 4% stayed inconclusive and do not appear here. Calls come from the whole dose curve; as a rule, active = well fitted activation curve with a large enough effect; inconclusive = small, poorly fitted or top-dose-only effect, or another doubt; inactive = no such curve, though single readings can be large or run the other way. The list shows a part of the results.

assay: Primary qHTS for Identification of Small Molecule Activators of Huntingtin-Antisense Promoter Activity; settings: HEK293 HTT-AS promoter firefly luciferase reporter (activity 0% = vehicle and -100% = no light), 24 h; series mostly up to 57.5 µM; activity change, positive = activation: at the top concentration; note: nearly all actives have a fitted effect of over 55% in size
In short: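 HEK293 Fluc reporter, 2,500 cells/well, 24 h pre-culture; cpds up to 57.5 uM final, 24 h 37 degrees C; Dual-Glo, 10 min RT; normalized vehicle = 0%, zero RLU = -100%.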

Activity change, positive = activation, inactive:
CC1=C(C(=O)Nc2ccc(C)cc2C)C(c2sccc2C)n2ncnc2N1 (configuration not stated) -18.5%
COc1ccc2cccc(CCNC(C)=O)c2c1 1.36%
CCOc1cccc(C2c3c(oc4ccccc4c3=O)C(=O)N2c2nc(C)c(C(=O)OC)s2)c1 (configuration not stated) -11.2%
Cc1ccc2occ(CC(=O)Nc3nnc(C(C)C)s3)c2c1 -16.4%
O=C(Nc1nnc(S(=O)(=O)N2CCCc3ccccc32)s1)c1ccccc1Br -20.1%
CCCN(CCC)C(=O)Cn1c(=O)n(Cc2ccc(C(=O)NCCc3ccc(OC)c(OC)c3)cc2)c(=O)c2ccccc21 -16.3%
CCCN(C(=O)c1cc2c(Cl)nc3ccccc3c2s1)c1cccc(C)c1 -21.7%
COCCNC(=O)c1ccc(Cn2c(SCC(=O)NC(C)C)nc3ccccc3c2=O)cc1 -17.2%
CCOc1cc(CNc2ccc(O)cc2)cc(Br)c1OCc1ccccc1 -43.4%
COc1ccc(CNC(=O)CCCn2c(SCC(N)=O)nc3cc4c(cc3c2=O)OCO4)cc1 -18.4%
Cc1cc(Nc2cccc(Cl)c2C)n2nc(Cc3ccccc3)nc2n1 -25.5%
CCN(CC)C(=O)CSc1nc2cc3c(cc2c(=O)n1Cc1ccc(C(=O)NCCc2ccc(OC)c(OC)c2)cc1)OCO3 -10.2%
CCOc1ccccc1NC(=O)Cn1c(=O)n(Cc2ccccc2)c(=O)c2c(C)c(C(=O)N(C)C)sc21 -9.12%
COc1cc(Cl)c(C)cc1NC(=O)c1cn(CC(C)C)c(=O)c2cc(OC)c(OC)cc12 -3.58%
CC(C)OCCCNC(=O)CCCn1c(SCC(=O)c2ccc(Br)cc2)nc2c(sc3ccccc32)c1=O -1.71%
COc1ccc(CNC(=O)c2cnn3c(C)c(Cc4ccc(F)cc4)c(C)nc23)cc1 0.66%
CC(NC(=O)c1ccccc1)c1nc2ccccc2n1Cc1ccc(Cl)cc1 (configuration not stated) -10.6%
Cc1cc(C)c(NC(=O)Cn2c(=O)n(CCCCC(=O)NCc3ccccc3Cl)c(=O)c3ccccc32)c(C)c1 -9.66%
COc1cc(CN(CC2CCCO2)C(=O)c2ccccc2F)cc(OC)c1OC (configuration not stated) -4.26%
Cc1ccc(-n2ncc(C(=O)Nc3ccc(C)c(F)c3)c2C2CCN(C(=O)OC(C)(C)C)CC2)cc1C -10.1%
CCOc1cc(C2c3c(oc4ccccc4c3=O)C(=O)N2Cc2ccc3c(c2)OCO3)ccc1O (configuration not stated) -2.13%
Cc1ccc(CNC(=O)CCCCn2c(=O)c3ccccc3n(Cc3ccc(Cl)cc3)c2=O)cc1 -10.3%
Cc1nc2sc(C(=O)NCc3ccc(Cl)cc3)c(NC(=O)c3ccccc3)c2c(C)c1C -44%
CCC(C(=O)OCc1cc(=O)n2nc(CCOC)sc2n1)c1ccccc1 (configuration not stated) -16.5%
Cc1ccccc1NC(=O)c1nc(-c2ccncc2)no1 4.72%
COc1cccc(N2CCN(c3nc4ccc(C(=O)c5ccccc5)cc4n4c(C)nnc34)CC2)c1 -4.77%
Cc1ccc(NC(=O)Cn2c(CCC(=O)O)ccc2-c2cccs2)cc1 -30.5%
Cc1ccc(-c2cn3c(n2)sc2cc(C(=O)N4CCCCC4)ccc23)cc1 -15.4%
Cc1cc(C)c2c(=O)cc(C(=O)Nc3ccc(S(=O)(=O)Nc4nc(C)cc(C)n4)cc3)oc2c1 -5.44%
CN(C)CC(=O)N1CCC(c2ccc(NC(=O)c3ncc(C#N)[nH]3)c(C3=CCCCC3)c2)CC1 -19.8%
COC(=O)C(C)Sc1nc2c([nH]c3ccccc32)c(=O)n1-c1ccc(OC)cc1 (configuration not stated) -18.2%
O=C(Nc1ccc2nc(SCC(=O)N3CCCC3)sc2c1)c1ccc(F)cc1 -18%
N#Cc1ccc(-c2cccs2)nc1SCc1ccc(Cl)cc1Cl 19.1%
CCc1ccccc1NC(=O)CSc1nnc(-c2nonc2NC(C)=O)n1C -4.49%
Cc1ccnc(NC(c2ccccc2F)c2ccc3cccnc3c2O)c1 (configuration not stated) -48.7%
Cc1ccc(Cl)cc1Nc1nc2ccccc2n2c(C)nnc12 -4.48%
CCCOc1ccccc1Cn1c(=O)sc2ccccc21 -13.7%
CN(CCOc1ccc(NS(C)(=O)=O)cc1)CCc1ccc(NS(C)(=O)=O)cc1
Cc1cc(NS(=O)(=O)c2ccc(NC(=O)COc3ccc(Br)cc3C)cc2)no1 -24%
CCCCc1nn2c(=O)cc(COC(=O)c3ccccc3NC(=O)C(C)(C)C)nc2s1 -0.839%
Cc1[nH]c(=O)[nH]c(=O)c1C1N2CC3(C(C)C)CN1CC(C(C)C)(C2)C3=O (configuration not stated) 11.2%
CCOC(=O)c1ccc(NC(=O)CN2C(=O)c3cccnc3Oc3ccc(Cl)cc32)cc1 -17.5%
Cc1ccc(N2CCn3c2nc2c3c(=O)n(CCc3ccccc3)c(=O)n2C)cc1C -2.55%
Cc1ccc(Cl)cc1NC(=O)Cn1nc2c(cc1=O)CC(C)CC2 (configuration not stated) -5.84%
Cc1ccc(OCCSc2nc3ccccc3n2CC(=O)N2CCOCC2)c(C)c1 -23.8%
CCOc1ccc(NC(=O)CN2C(=O)COc3ccc(S(=O)(=O)Nc4ccccc4)cc32)cc1 -14.8%
COc1ccc(C(=O)Nc2ccc3nc4n(c(=O)c3c2)CCCCC4)cc1OC -2.02%
CCC(=O)N1CCc2cc(Br)cc(S(=O)(=O)N3CCC(C(=O)NC(C)(C)C)CC3)c21 -0.765%
O=C(NNc1ncnc2c1cnn2-c1ccccc1)c1cccc(Cl)c1 -1.91%
CC(C)Cn1c(=O)c2ccccc2n2c(-c3cccc(Cl)c3)nnc12 20.8%
COc1ccc(Cl)c(Cn2c(NCCN)nc3c2c(=O)n(C)c(=O)n3C)c1 17%
COc1ccc(C(=O)NCc2nnnn2-c2ccc(C)c(C)c2)cc1 -14.8%
CCN(CC)CCn1c(=O)c(Cc2ccc(OC)cc2)nc2ccccc21 -7.52%
Fc1ccccc1N1CCN(c2nnc(C(F)(F)F)c3nnn(Cc4ccccc4)c23)CC1 -5.86%
O=C(Cn1c(SCCOc2ccccc2Cl)nc2ccccc21)N1CCOCC1 -8.15%
COc1ccc2c(CNCc3ccco3)c(C(=O)O)n(Cc3ccc(F)cc3Cl)c2c1 -18%
COc1ccc(CCNc2ncnc3c2nnn3C)cc1OC -10.6%
CCc1ccc(NC(=O)CSc2nc(-c3ccccc3)no2)cc1 16.7%
CN(C)S(=O)(=O)N(CC(=O)Nc1ccc(Br)cc1F)c1ccccc1 -17%
CCC(C)NS(=O)(=O)c1ccc(N2CCCCS2(=O)=O)cc1 (configuration not stated) -26.7%
COc1ccc(C)cc1NC(=O)C1CCCN(S(=O)(=O)c2ccc3c(c2)CCCN3C(C)=O)C1 (configuration not stated) -27.6%
COc1cccc2c1cc1c(=O)n(CC(=O)N3CCCCC3)nc(C)n12 -7.65%
Cc1ccc(C(=O)Nc2ccc(C(=O)O)cc2)cc1S(=O)(=O)Nc1ccccc1 3.32%
Cc1ccc(-n2c3c(c(=O)[nH]c2=O)C(NS(=O)(=O)c2ccc(Cl)cc2)(C(F)(F)F)C(=O)N3)cc1 (configuration not stated) -17.2%
NC(=O)C1CCN(c2ncnc3c2cnn3-c2ccccc2)CC1 -32.2%
O=c1c2oc3ccccc3c2n(Cc2ccc(Cl)cc2)c(=O)n1Cc1ccc2c(c1)OCO2 -22%
COCCNC(=O)CSc1nc2cc3c(cc2c(=O)n1CCCC(=O)NCCc1ccc(OC)c(OC)c1)OCO3 -3.98%
CCC(CC)C(=O)Nc1nnc(SCc2cc(=O)c3ccccc3[nH]2)s1 -45.3%
CCC(C)(C)NC(=O)C1CCC(CNS(=O)(=O)c2ccc3c(c2)CC(C)N3C(C)=O)CC1 (configuration not stated) -24.3%
CCOCCCNC(=O)CN1C(=O)c2cccnc2Sc2ccccc21 -9.76%
CCCCNC(=O)CCCN1C(=O)CCn2nc(-c3cccn3C)cc21 -4.59%
COc1cccc(NC(=O)Cn2c(=O)n(-c3cccc(OC)c3)c(=O)c3sc4ccccc4c32)c1 -28.4%
Cc1ccc(Cl)cc1N1CCN(C2(c3ccccc3)C(=O)c3ccccc3C2=O)CC1 -11.9%
Cc1ccccc1Cn1c(=O)n(Cc2ccco2)c(=O)c2oc3ccccc3c21 -15.3%
COc1ccc(Nc2ncc(C(=O)N3CCN(c4ccc(OC)cc4)CC3)c3ccccc23)cc1 -38.5%
O=C(c1ccc2c(c1)CCN2S(=O)(=O)c1ccc(Cl)cc1)N1CCN(c2ccccc2F)CC1 -12.8%
CN(C)c1ccc(CN2CCc3nc(N4CCN(c5ccccn5)CC4)ncc3C2)cc1 -42.3%
Cc1cc(OC(C)C(=O)N2CCN(CCc3ccccn3)CC2)ccc1Cl (configuration not stated) -7.14%
Cc1nc2c(c(SCC(=O)Nc3ccccc3C(F)(F)F)n1)CCC2 -34.6%
Cc1c(F)cccc1NS(=O)(=O)c1cccs1 -5.19%
CCC(CC)C(=O)Nc1ccc(OCc2cc(=O)n3ccc(C)cc3n2)cc1 -8.66%
CCOC(=O)C1CCN(C(=O)c2nn(-c3ccc(C)cc3)c(=O)c3c2c2ccccc2n3C)CC1 2.1%
CCOc1ccccc1C(N)=O -3.67%
CCOc1ccccc1N1CC(c2nc3ccccc3n2CCCOc2ccccc2)CC1=O (configuration not stated) -24.3%
COc1ccccc1Cn1ccn(CC(=O)Nc2c(C)cc(C)cc2C)c(=O)c1=O -17.4%
Cc1nnc(N2CCN(c3ccc(Cl)cc3)CC2)c2c1nnn2Cc1ccc(F)cc1 -5.35%
CC(C)C(=O)NC1CC(=O)N(c2ccc3c(c2)OCCO3)C1 (configuration not stated) 2.13%
Cc1c(C(=O)Nc2cccc(F)c2)sc2nc(-c3cc4ccccc4oc3=O)[nH]c(=O)c12 -7.57%
COc1ccc(NC(=O)c2c(NCc3cccs3)sc3c2CCCCC3)cc1 12.3%
CN(C1CCCCC1)S(=O)(=O)c1ccc(F)c(C(=O)Nc2ccc(C(F)(F)F)cc2)c1 -35.7%
Cc1ccc(-n2nc(C)c3c(C)cc(=O)n(CC(=O)Nc4ccc(C(C)C)cc4)c32)cc1 -3.78%
CCc1ccc(NC(=O)C(=O)NCCc2sc(-c3ccc(OC)c(OC)c3)nc2C)cc1 14%
CC1CCCCN1C(=O)c1ccc2c(c1)N(Cc1ccc(Cl)cc1)C(=O)c1ccccc1S2=O (configuration not stated) -29.4%
COc1cc(OC)cc(C(=O)NCCc2csc(-c3cccc(C)c3)n2)c1 -22.7%
CCOC(=O)c1sc2ncn(CC(=O)Nc3cccc(C)c3)c(=O)c2c1C -4.65%
CCOC(=O)c1[nH]c2ccccc2c1NC(=O)c1c(F)cccc1F -11.9%
O=C(NCc1ccccc1Cl)c1ccc2c(c1)N(Cc1ccccc1)C(=O)c1ccccc1S2 -13.2%
